Measured values published in PubChem BioAssay (Tox21).
Several values for one entry are separate records, joined by “and”; a condition that tells them apart may be missing. Identical values can stand only once. Activity calls are given as the source filed them. Unless noted, calls follow the shape of the dose curve; as a rule, active = well fitted curve in the direction sought with a large enough effect in the repeat runs; inconclusive = weak or mixed curves; inactive = no such curve, though single readings can be large; an effect the other way counts as inactive or inconclusive.

Key:
[1] = target: Glucocorticoid receptor (Homo sapiens) (UniProt P04150); assay: qHTS assay to identify small molecule agonists of the glucocorticoid receptor (GR) signaling pathway (AID 720691; active = well fitted activation curve with a large enough effect in the signal ratio in the repeat runs, not every such curve was filed as active; inconclusive = weak or mixed curves, or effect the other way; inactive = no such curve, though single readings can be large or run the other way; the % refers to the signal ratio; as to activation: % is scaled to controls: 0 for no effect and ±100 for the full control effect); details: GR-bla HeLa, beta-lactamase reporter ratio, 18 h; activation: at 62.4 µM (top of the series) unless noted
In short: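 Agonist mode in a HeLa line carrying a GRE-controlled beta-lactamase reporter. Compounds act for 18 h at 37 C before a 2 h room-temperature FRET substrate step and fluorescence reading.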

[2] = target: Glucocorticoid receptor (Homo sapiens) (UniProt P04150); assay: qHTS assay to identify small molecule antagonists of the glucocorticoid receptor (GR) signaling pathway (AID 720692; active = well fitted inhibition curve with a large enough effect in the signal ratio in the repeat runs, not every such curve was filed as active; inconclusive = weak or mixed curves, or effect the other way; inactive = no such curve, though single readings can be large or run the other way; the % refers to the signal ratio; as to activity change, negative = inhibition: % is scaled to controls: 0 for no effect and ±100 for the full control effect); details: GR-bla HeLa, beta-lactamase FRET ratio, dexamethasone-stimulated, 18 h; activity change, negative = inhibition: at 58.5 µM (top of the series) unless noted
In short: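 Cells plated, rested 4 h at 37 C/5% CO2; compounds in DMSO pin-transferred; dexamethasone added to 5 nM final; 18 h at 37 C; B/G FRET substrate added, 2 h room temperature; fluorescence measured.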

[3] = qHTS assay to identify small molecule antagonists of the glucocorticoid receptor (GR) signaling pathway - cell viability counter screen (AID 720693); details: GR-bla HeLa viability, CellTiter-Glo luminescence, 18 h, with 5 nM dexamethasone present; viability change, negative = cytotoxic: at 58.5 µM (top of the series) unless noted; also: nearly all actives have a fitted effect of over 55% in size; as to viability change, negative = cytotoxic: % is scaled to controls: 0 for no effect and ±100 for the full control effect
[4] = qHTS assay for identifying genotoxic compounds that show differential cytotoxicity against isogenic chicken DT40 cell lines with known DNA damage response pathways - Rev3 mutant cell line (AID 743014); details: chicken DT40 Rev3-/- viability, CellTiter-Glo, 40 h; activity, negative = cytotoxicity: at 68.4 µM (top of the series) unless noted; also: nearly all actives have a fitted effect of over 55% in size; as to activity, negative = cytotoxicity: % is scaled to controls: 0 for no effect and ±100 for the full control effect
[5] = qHTS assay for identifying genotoxic compounds that show differential cytotoxicity against isogenic chicken DT40 cell lines with known DNA damage response pathways - wild type cell line (AID 743012); details: DT40 wild type chicken cells viability, CellTiter-Glo, 40 h; activity change, negative = cytotoxicity: at 68.4 µM (top of the series) unless noted; also: nearly all actives have a fitted effect of over 60% in size
In short: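 Cells (DT40 wild type, 300/well) are treated with DMSO-dissolved compounds after a ~0.5 h pre-incubation and kept 40 h at 37 C/5% CO2. Viability is then measured by CellTiter-Glo luminescence following 30 min at room temperature.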

[6] = qHTS assay for identifying genotoxic compounds that show differential cytotoxicity against isogenic chicken DT40 cell lines with known DNA damage response pathways - Rad54/Ku70 mutant cell line (AID 743015); details: DT40 Rad54/Ku70 mutant viability, CellTiter-Glo, 40 h; activity change, negative = cytotoxicity: at 66.8 µM (top of the series); also: nearly all actives have a fitted effect of over 60% in size
[7] = qHTS assay to identify small molecule antagonists of the androgen receptor (AR) signaling pathway - cell viability counter screen (AID 743033; also: nearly all actives have a fitted effect of over 45% in size); details: AR-bla HEK293 viability, CellTiter-Glo luminescence, 16 h; activity change, negative = cytotoxicity: at 58.5 µM (top of the series) unless noted
Potency is read from the fitted curve at half-maximal effect; tags tell the direction and shape of the fitted curve or compound fluorescence and quenching.

UniProt P04150, sequence (P04150 whole entry, looked up): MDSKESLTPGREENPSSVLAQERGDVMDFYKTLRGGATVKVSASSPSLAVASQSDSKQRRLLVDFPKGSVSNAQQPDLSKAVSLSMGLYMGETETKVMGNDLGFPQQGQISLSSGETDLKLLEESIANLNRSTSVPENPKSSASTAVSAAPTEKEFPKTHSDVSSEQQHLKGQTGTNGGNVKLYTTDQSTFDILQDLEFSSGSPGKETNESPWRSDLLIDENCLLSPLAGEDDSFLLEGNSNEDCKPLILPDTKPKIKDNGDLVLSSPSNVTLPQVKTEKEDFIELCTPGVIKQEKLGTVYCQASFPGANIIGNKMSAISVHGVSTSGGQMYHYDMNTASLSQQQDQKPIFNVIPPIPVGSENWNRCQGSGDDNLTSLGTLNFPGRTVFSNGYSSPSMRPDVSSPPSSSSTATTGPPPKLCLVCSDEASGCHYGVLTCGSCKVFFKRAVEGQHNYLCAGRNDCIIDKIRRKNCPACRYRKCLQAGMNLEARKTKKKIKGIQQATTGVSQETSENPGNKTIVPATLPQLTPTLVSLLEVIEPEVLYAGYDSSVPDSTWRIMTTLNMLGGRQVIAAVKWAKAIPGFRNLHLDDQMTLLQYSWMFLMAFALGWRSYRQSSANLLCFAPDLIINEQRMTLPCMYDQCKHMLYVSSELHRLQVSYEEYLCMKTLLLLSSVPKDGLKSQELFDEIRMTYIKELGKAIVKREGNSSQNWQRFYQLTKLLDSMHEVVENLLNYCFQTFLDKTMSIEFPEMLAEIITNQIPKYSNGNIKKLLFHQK

| SMILES | Potency [1] | activity change, negative = inhibition [2] | Potency [3] | Potency [4] | Potency [2] | Potency [5] | Potency [6] | Potency [7] |
| --- | --- | --- | --- | --- | --- | --- | --- | --- |
| O=S(=O)(O)C(F)(F)F | inactive | inconclusive: 35.8% | inactive | inactive |  |  |  |  |
| CC1(C)O[C@@H]2C[C@H]3[C@@H]4CCC5=CC(=O)C=C[C@]5(C)[C@H]4[C@@H](O)C[C@]3(C)[C@]2(C(=O)CO)O1 | active: 0.0301 µM [inconclusive] |  |  | inconclusive: 23.7 µM [rising, partial curve, poor fit] | inconclusive: 0.0213 µM [activator, full curve] | inconclusive: 15 µM [rising, partial curve, poor fit] |  |  |
| CC1=CC(=C(c2ccc(N)cc2)c2ccc(N)cc2)C=CC1=N | inconclusive: 12 µM [falling, partial curve] | inconclusive: 31.3% [at 7.04 µM] |  |  | inconclusive: 26.8 µM | inconclusive: 4.91 µM [cytotoxic, single point] | inconclusive: 3.1 µM [cytotoxic, partial curve] | inconclusive: 15.1 µM [cytotoxic, partial curve] and inconclusive: 1.97 µM [cytotoxic, partial curve] |
| CC(C)CCCCOC(=O)c1ccccc1C(=O)OCCCCC(C)C | inactive |  |  | inactive | inconclusive: 31 µM [inhibitor, partial curve, poor fit] |  |  |  |
| Cc1cc(O)c2c(c1)C(=O)c1cccc(O)c1C2=O | inactive | inconclusive: -26.2% | inconclusive: 26.9 µM [cytotoxic, partial curve, poor fit] | inconclusive: 33.6 µM [cytotoxic, single point] |  | inactive |  |  |
